Laboratory results reported in the RNAGym collection of RNA variant scans (doi:10.1093/nar/gkz1192).
Read counts are not given, so values of variants with three or more changes are uncertain.

B1: CPEB3 Ribozyme (parent)
chain: UAACAGGGGGCCACAGCAGAAGCGUUCACGUCGCAGCCCCUGUCAGAUUCUGGUGAAUCUGCGAAUUCUGCUGUAUAUCUC

Variants of: B1
Assay: self-cleavage, relative activity (ratio to wild type); higher = more cleavage; in vitro, sequencing
In short: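 After error-prone PCR and barcoding, CPEB3 ribozyme mutant libraries were transcribed with T7 RNA polymerase at 37°C for 5 hours, then given 15 min with DNase I before an EDTA stop, and they cleaved during both steps. Reverse transcription with template switching preceded Illumina sequencing. Relative activity divides a variant's cleaved/total read fraction by the unmutated ribozyme's. At least 5 reads were required per variant, and three batches were averaged.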

| Variant | self-cleavage |
| --- | --- |
| U1C A2C A5U C29A U41C G53A U76A | 0.65 |
| U1C A2C C29A U41C G53A A56U | 0.09 |
| U1C A2G A5G U43C | 0.33 |
| U1C A2G A13C U25C A65G | 0 |
| U1C A2G A15G | 0.57 |
| U1C A2G A15G A35G C39U A64G | 0.35 |
| U1C A2G A18G G24A | 0.37 |
| U1C A2G A18G U26A A35G C68U U72C | 0.09 |
| U1C A2G A20G U41A A64G | 0.34 |
| U1C A2G A21C A28G G36A U74C | 0.4 |
| U1C A2G A28U U51A U60C A64G | 0.18 |
| U1C A2G A35U U49C G52A U54C U60A | 0.05 |
| U1C A2G A47C | 0.5 |
| U1C A2G A47G | 0.4 |
| U1C A2G C14U U72C | 0.55 |
| U1C A2G G16U | 0.36 |
| U1C A2G G19U U60G A64G U80A | 0.12 |
| U1C A2G U25C U26C | 0.58 |
| U1C A2G U41C U43A | 0.71 |
| U1C A2U A13U A20G C40U C68A | 0.2 |
| U1C A2U A13U A28G A45C U60C A77G | 0.04 |

| Variant | self-cleavage |
| --- | --- |
| U1C A2U A18G A56U A57C | 0.31 |
| U1C A2U A20G G30C G36U | 0.05 |
| U1C A2U A28G U41C U49A G55C U72G | 0.11 |
| U1C A2U C29A U41A U54A U80C | 0.37 |
| U1C A2U U26C G46A U51C A64G A75U | 0.04 |
| U1C A2U U31A U41A U69C U76C | 0.18 |
| U1C A2U U41A U54A G63A A65G | 0.16 |
| U1C A2U U41C U48C U49C | 0.25 |
| U1C A2U U72C | 0.5 |
| U1C A3C A20G U60C U80A | 0.15 |
| U1C A3C A35U U72C | 0.84 |
| U1C A3C G10A U67C | 0.05 |
| U1C A3G A5G G55C A57G U72C A75U | 0.32 |
| U1C A3G A5U G10A A15G A35G U54A | 0.59 |
| U1C A3G A13G U41C | 0.54 |
| U1C A3G A18G C34U U49C | 0.06 |
| U1C A3G A18G U43C | 0.58 |
| U1C A3G A18U A20G | 0.14 |
| U1C A3G A20G U41C U43C | 0.71 |
| U1C A3G A20G U43C A65G | 0.04 |
| U1C A3G A20G U43C U49A | 0.08 |

| Variant | self-cleavage |
| --- | --- |
| U1C A3G A21G A28U | 0.62 |
| U1C A3G A45G | 0.82 |
| U1C A3G A56G A65G | 0.32 |
| U1C A3G A65G | 0.5 |
| U1C A3G A75G | 0.7 |
| U1C A3G C11U A18U A64G A65G U78C | 0.04 |
| U1C A3G C39U U58C U67C | 0.1 |
| U1C A3G G30A A35U A64G U74A | 0.31 |
| U1C A3G G46A U48C A56U A64U C71U | 0.03 |
| U1C A3G G55C | 1.01 |
| U1C A3G U26A G52U A57G U80C | 0.87 |
| U1C A3G U31C U60C U72C U76A | 0.56 |
| U1C A3G U31C U74G | 1.2 |
| U1C A3G U72C | 1.21 |
| U1C A3U A5C A18G A20G U25A | 0.71 |
| U1C A3U A15G A56G U80C | 0.75 |
| U1C A3U A15U U60A | 0.18 |
| U1C A3U A20G U41C C62U | 0.1 |
| U1C A3U C40U A47G | 0.52 |
| U1C A3U G19A A47G | 0.41 |
| U1C A3U U41C U69C | 0.44 |

| Variant | self-cleavage |
| --- | --- |
| U1C A5C C11G A28G U51A | 0.11 |
| U1C A5G A18G | 0.31 |
| U1C A5G A21U C39U U67C U74C | 0.05 |
| U1C A5G A21U U26C C39U U48C U67C | 0.14 |
| U1C A5G A28U A35G | 1.02 |
| U1C A5G A28U U43A A57G G70C | 0.15 |
| U1C A5G A35U A65G U66C | 0.28 |
| U1C A5G A56G U72C | 0.63 |
| U1C A5G C11U G36A U51G U66C A75U | 0.07 |
| U1C A5G C17G C39A U41C U69C | 0.05 |
| U1C A5G C29G U41A | 0.51 |
| U1C A5G C39U U67C | 0.17 |
| U1C A5G C40U | 0.72 |
| U1C A5G G9A C17U A21U | 0.05 |
| U1C A5G G53U C79U | 0.99 |
| U1C A5G U25C | 0.14 |
| U1C A5G U26A U74A U78C | 0.67 |
| U1C A5G U26C C29G A45G | 0.09 |
| U1C A5G U26C C62A | 0.39 |
| U1C A5G U26C U48C U72C | 0.09 |
